Reference: the supplement of paper PMC8728848
Some of the results follow.

Key:
Assay in all cases: glycan array binding signal (z-score within array); higher = stronger binding
Conditions in all cases: glycan notation: IUPAC condensed, linker removed
[1] = target: Gal(b1-4)GlcNAc(b1-2)[Gal(b1-4)GlcNAc(b1-6)]Man(a1-6)[Gal(b1-4)GlcNAc(b1-2)Man(a1-3)]Man(b1-4)GlcNAc(b1-4)[Fuc(a1-6)]GlcNAc
Outline: (§1)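 The binding signal is a Z-score computed within each array and averaged over linkers. Arrays of the same protein sequence at different concentrations or buffers were also averaged together. Data originate from 3228 arrays in the Consortium for Functional Glycomics database, kept only where the protein sequence was available.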

[2] = target: Gal(b1-4)GlcNAc(b1-2)[Gal(b1-4)GlcNAc(b1-6)]Man(a1-6)[GlcNAc(b1-4)][Gal(b1-4)GlcNAc(b1-2)Man(a1-3)]Man(b1-4)GlcNAc(b1-4)GlcNAc
Outline: as §1

[3] = target: Gal(b1-4)GlcNAc(b1-2)[Gal(b1-4)GlcNAc(b1-6)]Man(a1-6)[GlcNAc(b1-4)][Gal(b1-4)GlcNAc(b1-2)[Gal(b1-4)GlcNAc(b1-4)]Man(a1-3)]Man(b1-4)GlcNAc(b1-4)[Fuc(a1-6)]GlcNAc
Outline: as §1

[4] = target: Gal(b1-4)GlcNAc(b1-3)Gal(b1-3)GalNAc
Outline: as §1

[5] = target: Gal(b1-4)GlcNAc(b1-3)Gal(b1-3)GlcNAc
Outline: as §1

[6] = target: Gal(b1-4)GlcNAc(b1-3)Gal(b1-4)Glc
Outline: as §1

[7] = target: Gal(b1-4)GlcNAc(b1-3)Gal(b1-4)GlcNAc
Outline: as §1

[8] = target: Gal(b1-4)GlcNAc(b1-3)Gal(b1-4)GlcNAc(b1-2)Man(a1-3)[Gal(b1-4)GlcNAc(b1-3)Gal(b1-4)GlcNAc(b1-2)Man(a1-6)]Man(b1-4)GlcNAc(b1-4)GlcNAc
Outline: as §1

[9] = target: Gal(b1-4)GlcNAc(b1-3)Gal(b1-4)GlcNAc(b1-2)Man(a1-3)[Gal(b1-4)GlcNAc(b1-3)Gal(b1-4)GlcNAc(b1-2)Man(a1-6)]Man(b1-4)GlcNAc(b1-4)[Fuc(a1-6)]GlcNAc
Outline: as §1

[10] = target: Gal(b1-4)GlcNAc(b1-3)Gal(b1-4)GlcNAc(b1-2)[Gal(b1-4)GlcNAc(b1-3)Gal(b1-4)GlcNAc(b1-6)]Man(a1-6)[Gal(b1-4)GlcNAc(b1-3)Gal(b1-4)GlcNAc(b1-2)Man(a1-3)]Man(b1-4)GlcNAc(b1-4)GlcNAc
Outline: as §1

[11] = target: Gal(b1-4)GlcNAc(b1-3)Gal(b1-4)GlcNAc(b1-2)[Gal(b1-4)GlcNAc(b1-3)Gal(b1-4)GlcNAc(b1-6)]Man(a1-6)[Gal(b1-4)GlcNAc(b1-3)Gal(b1-4)GlcNAc(b1-2)Man(a1-3)]Man(b1-4)GlcNAc(b1-4)[Fuc(a1-6)]GlcNAc
Outline: as §1

[12] = target: Gal(b1-4)GlcNAc(b1-3)Gal(b1-4)GlcNAc(b1-3)Gal(b1-4)GlcNAc
Outline: as §1

[13] = target: Gal(b1-4)GlcNAc(b1-3)Gal(b1-4)GlcNAc(b1-3)Gal(b1-4)GlcNAc(b1-2)Man(a1-3)[Gal(b1-4)GlcNAc(b1-3)Gal(b1-4)GlcNAc(b1-3)Gal(b1-4)GlcNAc(b1-2)Man(a1-6)]Man(b1-4)GlcNAc(b1-4)GlcNAc
Outline: as §1

[14] = target: Gal(b1-4)GlcNAc(b1-3)Gal(b1-4)GlcNAc(b1-3)Gal(b1-4)GlcNAc(b1-2)Man(a1-3)[Gal(b1-4)GlcNAc(b1-3)Gal(b1-4)GlcNAc(b1-3)Gal(b1-4)GlcNAc(b1-2)Man(a1-6)]Man(b1-4)GlcNAc(b1-4)[Fuc(a1-6)]GlcNAc
Outline: as §1

[15] = target: Gal(b1-4)GlcNAc(b1-3)Gal(b1-4)GlcNAc(b1-3)Gal(b1-4)GlcNAc(b1-2)[Gal(b1-4)GlcNAc(b1-3)Gal(b1-4)GlcNAc(b1-3)Gal(b1-4)GlcNAc(b1-6)]Man(a1-6)[Gal(b1-4)GlcNAc(b1-3)Gal(b1-4)GlcNAc(b1-3)Gal(b1-4)GlcNAc(b1-2)Man(a1-3)]Man(b1-4)GlcNAc(b1-4)[Fuc(a1-6)]GlcNAc
Outline: as §1

[16] = target: Gal(b1-4)GlcNAc(b1-3)Gal(b1-4)GlcNAc(b1-3)Gal(b1-4)GlcNAc(b1-3)Gal(b1-4)GlcNAc(b1-2)Man(a1-3)[Gal(b1-4)GlcNAc(b1-3)Gal(b1-4)GlcNAc(b1-3)Gal(b1-4)GlcNAc(b1-3)Gal(b1-4)GlcNAc(b1-2)Man(a1-6)]Man(b1-4)GlcNAc(b1-4)GlcNAc
Outline: as §1

[17] = target: Gal(b1-4)GlcNAc(b1-3)Gal(b1-4)GlcNAc(b1-3)Gal(b1-4)GlcNAc(b1-3)Gal(b1-4)GlcNAc(b1-2)Man(a1-3)[Gal(b1-4)GlcNAc(b1-3)Gal(b1-4)GlcNAc(b1-3)Gal(b1-4)GlcNAc(b1-3)Gal(b1-4)GlcNAc(b1-2)Man(a1-6)]Man(b1-4)GlcNAc(b1-4)[Fuc(a1-6)]GlcNAc
Outline: as §1

[18] = target: Gal(b1-4)GlcNAc(b1-3)Gal(b1-4)GlcNAc(b1-3)Gal(b1-4)GlcNAc(b1-3)Gal(b1-4)GlcNAc(b1-2)[Gal(b1-4)GlcNAc(b1-3)Gal(b1-4)GlcNAc(b1-3)Gal(b1-4)GlcNAc(b1-3)Gal(b1-4)GlcNAc(b1-6)]Man(a1-6)[Gal(b1-4)GlcNAc(b1-3)Gal(b1-4)GlcNAc(b1-3)Gal(b1-4)GlcNAc(b1-3)Gal(b1-4)GlcNAc(b1-2)Man(a1-3)]Man(b1-4)GlcNAc(b1-4)[Fuc(a1-6)]GlcNAc
Outline: as §1

[19] = target: Gal(b1-4)GlcNAc(b1-3)Gal(b1-4)GlcNAc(b1-3)Gal(b1-4)GlcNAc(b1-3)Gal(b1-4)GlcNAc(b1-3)Gal(b1-4)GlcNAc(b1-2)Man(a1-3)[Gal(b1-4)GlcNAc(b1-3)Gal(b1-4)GlcNAc(b1-3)Gal(b1-4)GlcNAc(b1-3)Gal(b1-4)GlcNAc(b1-3)Gal(b1-4)GlcNAc(b1-2)Man(a1-6)]Man(b1-4)GlcNAc(b1-4)GlcNAc
Outline: as §1

[20] = target: Gal(b1-4)GlcNAc(b1-3)Gal(b1-4)GlcNAc(b1-3)Gal(b1-4)GlcNAc(b1-3)Gal(b1-4)GlcNAc(b1-3)Gal(b1-4)GlcNAc(b1-2)Man(a1-3)[Gal(b1-4)GlcNAc(b1-3)Gal(b1-4)GlcNAc(b1-3)Gal(b1-4)GlcNAc(b1-3)Gal(b1-4)GlcNAc(b1-3)Gal(b1-4)GlcNAc(b1-2)Man(a1-6)]Man(b1-4)GlcNAc(b1-4)[Fuc(a1-6)]GlcNAc
Outline: as §1

[21] = target: Gal(b1-4)GlcNAc(b1-3)Gal(b1-4)GlcNAc(b1-3)Gal(b1-4)GlcNAc(b1-3)Gal(b1-4)GlcNAc(b1-3)Gal(b1-4)GlcNAc(b1-2)[Gal(b1-4)GlcNAc(b1-3)Gal(b1-4)GlcNAc(b1-3)Gal(b1-4)GlcNAc(b1-3)Gal(b1-4)GlcNAc(b1-3)Gal(b1-4)GlcNAc(b1-6)]Man(a1-6)[Gal(b1-4)GlcNAc(b1-3)Gal(b1-4)GlcNAc(b1-3)Gal(b1-4)GlcNAc(b1-3)Gal(b1-4)GlcNAc(b1-3)Gal(b1-4)GlcNAc(b1-2)Man(a1-3)]Man(b1-4)GlcNAc(b1-4)[Fuc(a1-6)]GlcNAc
Outline: as §1

[22] = target: Gal(b1-4)GlcNAc(b1-3)Gal(b1-4)GlcNAc(b1-3)Gal(b1-4)GlcNAc(b1-3)Gal(b1-4)GlcNAc(b1-3)Gal(b1-4)GlcNAc(b1-3)Gal(b1-4)GlcNAc(b1-2)Man(a1-3)[Gal(b1-4)GlcNAc(b1-3)Gal(b1-4)GlcNAc(b1-3)Gal(b1-4)GlcNAc(b1-3)Gal(b1-4)GlcNAc(b1-3)Gal(b1-4)GlcNAc(b1-3)Gal(b1-4)GlcNAc(b1-2)Man(a1-6)]Man(b1-4)GlcNAc(b1-4)GlcNAc
Outline: as §1

[23] = target: Gal(b1-4)GlcNAc(b1-3)Gal(b1-4)GlcNAc(b1-3)GalNAc
Outline: as §1

[24] = target: Gal(b1-4)GlcNAc(b1-3)Gal(b1-4)GlcNAc(b1-3)[Gal(b1-4)GlcNAc(b1-3)Gal(b1-4)GlcNAc(b1-6)]GalNAc
Outline: as §1

[25] = target: Gal(b1-4)GlcNAc(b1-3)Gal(b1-4)GlcNAc(b1-6)[Gal(b1-3)]GalNAc
Outline: as §1

[26] = target: Gal(b1-4)GlcNAc(b1-3)Gal(b1-4)[Fuc(a1-3)]GlcNAc(b1-3)Gal(b1-4)[Fuc(a1-3)]GlcNAc
Outline: as §1

[27] = target: Gal(b1-4)GlcNAc(b1-3)GalNAc
Outline: as §1

[28] = target: Gal(b1-4)GlcNAc(b1-3)[Fuc(a1-3)GlcNAc(b1-6)]Gal(b1-4)Glc
Outline: as §1

[29] = target: Gal(b1-4)GlcNAc(b1-3)[Gal(b1-4)GlcNAc(b1-6)]Gal(b1-4)GlcNAc
Outline: as §1

[30] = target: Gal(b1-4)GlcNAc(b1-3)[GlcNAc(b1-6)]Gal(b1-4)GlcNAc
Outline: as §1

[31] = target: Gal(b1-4)GlcNAc(b1-6)Gal(b1-4)GlcNAc
Outline: as §1

[32] = target: Gal(b1-4)GlcNAc(b1-6)GalNAc
Outline: as §1

[33] = target: Gal(b1-4)GlcNAc(b1-6)[Gal(b1-3)]GalNAc
Outline: as §1

[34] = target: Gal(b1-4)GlcNAc(b1-6)[Gal(b1-4)GlcNAc(b1-3)]GalNAc
Outline: as §1

Gal(b1-4)GlcNAc6P = target: Gal(b1-4)GlcNAc6P
Outline: as §1

Gal(b1-6)Gal = target: Gal(b1-6)Gal
Outline: as §1

Gal3S(b1-3)GalNAc = target: Gal3S(b1-3)GalNAc
Outline: as §1

Gal3S(b1-3)GlcNAc = target: Gal3S(b1-3)GlcNAc
Outline: as §1

B1: Epa9 (Candida glabrata), CAGL0A01386g (protein)
chain: MGSSHHHHHHSSGLVPRGSHMDITPFAHYPRPEGCSSPPNAVSVGLHMDLYNYPYLYVKNPRTGFTNDTDSDADGETDGDSAGGIEGRAGQCWNPEYQDPNFPRYGYKKYGSFGSSDHVNGKISWDHNEFKEGCKPIMARLPTAYNYPAKITFSNFTMVLSGYFKPKSTGLYKFEIHADDFILFNFGSKNAFECCNREESIDNFGPYVAYAMWPNEADQELEVYLFEDSYYPIRLFYNNRDYHSKFMVGFYPPNTEEITYDFDGYLYMLDDTGNECKDSIRYKTVCDD
[1]
  glycan array binding signal (z-score): 1.3
[2]
  glycan array binding signal (z-score): 0.938
[3]
  glycan array binding signal (z-score): 1.7
[4]
  glycan array binding signal (z-score): 0.218
[5]
  glycan array binding signal (z-score): 0.347
[6]
  glycan array binding signal (z-score): 1.14
[7]
  glycan array binding signal (z-score): 1.31
[8]
  glycan array binding signal (z-score): 1.3
[9]
  glycan array binding signal (z-score): 2.76
[10]
  glycan array binding signal (z-score): 1.93
[11]
  glycan array binding signal (z-score): 2.72
[12]
  glycan array binding signal (z-score): 1.79
[13]
  glycan array binding signal (z-score): 2.21
[14]
  glycan array binding signal (z-score): 3.45
[15]
  glycan array binding signal (z-score): 3.44
[16]
  glycan array binding signal (z-score): 4.82
[17]
  glycan array binding signal (z-score): 4.74
[18]
  glycan array binding signal (z-score): 5.31
[19]
  glycan array binding signal (z-score): 5.73
[20]
  glycan array binding signal (z-score): 5.38
[21]
  glycan array binding signal (z-score): 6.29
[22]
  glycan array binding signal (z-score): 4.6
[23]
  glycan array binding signal (z-score): 0.655
[24]
  glycan array binding signal (z-score): 1.18
[25]
  glycan array binding signal (z-score): 1.01
[26]
  glycan array binding signal (z-score): 1.5
[27]
  glycan array binding signal (z-score): 0.451
[28]
  glycan array binding signal (z-score): 0.601
[29]
  glycan array binding signal (z-score): 2.02
[30]
  glycan array binding signal (z-score): 1.41
[31]
  glycan array binding signal (z-score): 1.82
[32]
  glycan array binding signal (z-score): 0.436
[33]
  glycan array binding signal (z-score): 2.27
[34]
  glycan array binding signal (z-score): 1.45
Gal(b1-4)GlcNAc6P
  glycan array binding signal (z-score): -0.435
Gal(b1-6)Gal
  glycan array binding signal (z-score): -0.089
Gal3S(b1-3)GalNAc
  glycan array binding signal (z-score): -0.464
Gal3S(b1-3)GlcNAc
  glycan array binding signal (z-score): -0.521
